{"source": "patent US8946167B2", "about": "“Pharmaceutical compositions containing plasma protein” (priority 1997, dated 2015)", "target": "human serum albumin (Homo sapiens, UniProt P02768)", "note": "Like-named read-outs stand apart in the source and are kept apart here."}
{"smiles": "C[C@@H]1[C@H](O)[C@@H](C)/C=C/C=C/C=C/C=C/C=C/C=C/C=C/[C@H](O[C@@H]2O[C@H](C)[C@@H](O)[C@H](N)[C@@H]2O)C[C@@H]2O[C@](O)(C[C@@H](O)C[C@@H](O)[C@H](O)CC[C@@H](O)C[C@@H](O)CC(=O)O[C@H]1C)C[C@H](O)[C@H]2C(=O)O", "note": "[amphotericin B]", "values": [{"measurement": "binding (amphotericin B to HSA)", "setting": "Example II.35, 9.0 ml 0.8% HSA + 1.0 ml 4.0 mg/ml amphotericin B in dimethyl formamide, dialyzed against water at 4° C. for 20 hours", "value": 99.6, "unit": "%"}]}
{"smiles": "NC(=O)N1c2ccccc2C=Cc2ccccc21", "note": "[carbamazepin]", "values": [{"measurement": "binding of carbamazepin to HSA", "setting": "Example II.29, 4.0% HSA + 8.0 mg/ml carbamazepin in abs. ethanol 19:1, lyophilised, redissolved, UF", "value": 98, "unit": "%"}]}
{"smiles": "CC(=O)O[C@H]1C(=O)[C@@]2(C)[C@H]([C@H](OC(=O)c3ccccc3)[C@]3(O)C[C@H](OC(=O)[C@H](O)[C@@H](NC(=O)c4ccccc4)c4ccccc4)C(C)=C1C3(C)C)[C@]1(OC(C)=O)CO[C@@H]1C[C@@H]2O", "note": "[paclitaxel]", "values": [{"measurement": "binding of paclitaxel to human serum albumin", "setting": "Example II.1, 20% HSA + 1 mg/ml paclitaxel in absolute ethanol 4:1, lyophilised, redissolved, UF filtrate and retentate", "value": 99, "unit": "%"}, {"measurement": "binding of paclitaxel to human serum albumin", "setting": "Example II.2, 4.44% HSA + 2.0 mg/ml paclitaxel in absolute ethanol 9:1, lyophilised, redissolved, UF", "value": 99, "unit": "%"}]}
